Reference: patent US20240376128A1, “N-CYCLOPROPYLPYRIDO [4, 3-D] PYRIMIDIN-4-AMINE DERIVATIVES AND USES THEREOF” (Jacobio Pharmaceuticals Co., Ltd., priority 2021, published 2024)

How the values were obtained:
[1] = molecular target: K-Ras G13D (Homo sapiens, UniProt P01116, G13D); test: Nucleotide exchange assay (GDP form K-Ras, no SOS1 added), TR-FRET; conditions: read-out: Biochemical assays, IC50, K-Ras G13D GDP
Experimental: (§1) The parameters were F486: Excitation 340 nm, Emission 486 nm, Lag time 100 pas, Integration time 200 pas; F515: Excitation 340 nm, Emission 515 nm, Lag time 100 pas, Integration time 200 pas. TR-FRET ratios for each individual wells were calculated by equation: TR-FRET ratio=(Signal F515/Signal F486)*10000.

[2] = molecular target: T1, K-Ras G12C (Homo sapiens, UniProt P01116, G12C); test: SOS1 catalyzed nucleotide exchange assay (GDP form K-Ras), TR-FRET; conditions: read-out: Biochemical assays, IC50, K-Ras G12C GDP
Experimental: as §1

[3] = molecular target: T1, K-Ras G12C; test: GTP-K-Ras (GppNp-K-Ras) and cRAF interaction assay, HTRF; conditions: read-out: Biochemical assays, IC50, K-Ras G12C GppNp
Source text: GppNp is an analog of GTP.

T1 sequence (P01116 1-169 isoform P01116-2 G12C): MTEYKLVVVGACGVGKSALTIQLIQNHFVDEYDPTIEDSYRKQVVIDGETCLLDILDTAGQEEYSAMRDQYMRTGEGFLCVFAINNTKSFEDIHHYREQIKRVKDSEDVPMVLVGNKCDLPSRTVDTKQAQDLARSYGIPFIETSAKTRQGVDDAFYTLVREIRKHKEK
Sequence of K-Ras G13D (P01116 1-169 isoform P01116-2 G13D): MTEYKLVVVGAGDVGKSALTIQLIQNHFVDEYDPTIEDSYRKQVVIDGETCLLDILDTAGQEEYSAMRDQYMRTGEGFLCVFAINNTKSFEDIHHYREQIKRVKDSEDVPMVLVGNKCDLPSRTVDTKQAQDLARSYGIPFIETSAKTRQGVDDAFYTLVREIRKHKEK

SMILES: C#Cc1c(F)ccc2cc(O)cc(-c3ncc4c(N(C)[C@@H]5C[C@H]5F)nc(OC[C@@]56CCCN5C[C@H](F)C6)nc4c3F)c12.O=C(O)C(F)(F)F (single isomer, unassigned) [Compound 3]
- IC50 [1]: 4.98 nM
- IC50 [2]: 3.21 nM
- IC50 [3]: 283 nM
